# Values joined by “and” are separate entries in the source; they are usually repeats but may differ in a detail not shown here. Equal entries are not always repeated. Among all 350,000 compounds or so, about 31,000 (8.9%) were called active. This list was built around the results that the source calls inconclusive (neither active nor inactive); the mix of calls is not that of the screen. Calls come from the whole dose curve; as a rule, active = well fitted inhibition curve with a large enough effect; inconclusive = small, poorly fitted or top-dose-only effect; inactive = no such curve, though single readings can be large or run the other way. Where the call is inconclusive, the potency comes from a doubtful curve fit.
# Target: Histone-lysine N-methyltransferase EHMT2 (Homo sapiens) (UniProt Q96KQ7)
# Assay: qHTS Assay for Inhibitors of Histone Lysine Methyltransferase G9a; note: nearly all actives have a fitted effect of over 75% in size
# Details: G9a H3K9 monomethylation, AlphaScreen, 2 h; activity, negative = inhibition: at 59 µM (top of the series) unless noted
# In short: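 G9a (20 nM) was preincubated 15 min with compound, then reacted 2 h at room temperature with 500 nM biotin-H3K9 peptide and 20 µM SAM. Monomethyl-H3K9 detected by AlphaScreen using anti-H3K9me1 antibody.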
# % is set by controls: 0 for no effect and ±100 for the full control effect; potency is the fitted concentration of half-maximal effect; tags give direction and shape of the fitted curve.
# Chain of UniProt Q96KQ7 (Q96KQ7 whole entry, looked up): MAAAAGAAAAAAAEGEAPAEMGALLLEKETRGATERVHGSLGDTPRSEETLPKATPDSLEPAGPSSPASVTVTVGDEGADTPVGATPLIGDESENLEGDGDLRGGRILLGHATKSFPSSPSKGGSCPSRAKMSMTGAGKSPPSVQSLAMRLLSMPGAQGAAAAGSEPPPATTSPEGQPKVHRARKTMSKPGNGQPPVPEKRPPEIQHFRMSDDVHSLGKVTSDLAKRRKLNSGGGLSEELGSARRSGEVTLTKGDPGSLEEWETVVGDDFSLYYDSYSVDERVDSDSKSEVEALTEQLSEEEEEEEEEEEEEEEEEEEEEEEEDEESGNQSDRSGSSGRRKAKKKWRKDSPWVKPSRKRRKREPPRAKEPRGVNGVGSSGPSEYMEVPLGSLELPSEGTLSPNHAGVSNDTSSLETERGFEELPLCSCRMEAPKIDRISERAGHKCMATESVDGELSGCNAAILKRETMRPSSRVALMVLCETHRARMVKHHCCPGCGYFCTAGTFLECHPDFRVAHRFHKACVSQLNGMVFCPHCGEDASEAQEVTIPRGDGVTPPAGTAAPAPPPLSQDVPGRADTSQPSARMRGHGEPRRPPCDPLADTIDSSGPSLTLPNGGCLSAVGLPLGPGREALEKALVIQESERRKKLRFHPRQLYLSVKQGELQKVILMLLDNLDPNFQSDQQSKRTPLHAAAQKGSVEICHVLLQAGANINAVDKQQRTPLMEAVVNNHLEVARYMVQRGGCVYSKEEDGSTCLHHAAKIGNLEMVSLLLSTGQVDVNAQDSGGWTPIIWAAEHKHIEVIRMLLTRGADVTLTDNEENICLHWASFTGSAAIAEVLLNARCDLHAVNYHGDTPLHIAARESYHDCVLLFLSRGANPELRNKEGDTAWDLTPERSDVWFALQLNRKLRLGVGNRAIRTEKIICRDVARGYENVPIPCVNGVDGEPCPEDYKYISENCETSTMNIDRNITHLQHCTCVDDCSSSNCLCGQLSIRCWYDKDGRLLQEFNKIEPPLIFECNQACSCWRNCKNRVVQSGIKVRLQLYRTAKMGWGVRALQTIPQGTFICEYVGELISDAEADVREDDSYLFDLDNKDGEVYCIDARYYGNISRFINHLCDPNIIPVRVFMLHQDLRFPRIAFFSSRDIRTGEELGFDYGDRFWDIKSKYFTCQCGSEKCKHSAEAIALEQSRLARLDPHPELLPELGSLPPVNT
Structure (SMILES),Potency,"activity, negative = inhibition"
COc1ccc(C(C)NCCC(c2ccc(OC(C)C)cc2)c2ccccc2OC)cc1 (configuration not stated),"inconclusive: 35.5 µM [inhibitor, partial curve, poor fit]",
CCOC(=O)c1c(C)[nH]c(C)c1C(=O)COC(=O)/C=C/c1ccc(OC(F)F)cc1,"inconclusive: 39.8 µM [inhibitor, single point]",
COc1ccc(NC(=O)c2ccco2)cc1NC(=O)C(C)(C)Oc1ccc(Cl)cc1,"inconclusive: 28.2 µM [inhibitor, partial curve, poor fit]",
COc1ccc(NC2=C3CCCC=C3N(c3ccc(OC)cc3)C2=O)cc1,active: 39.8 µM,
Cc1nn2c(C)c(C(=O)NC(C)c3ccccc3)cnc2c1-c1ccc(F)cc1 (configuration not stated),inactive,
O=C(CN(Cc1ccccc1)S(=O)(=O)c1ccc(F)cc1)NCCC1=CCCCC1,"inconclusive: 6.31 µM [inhibitor, single point]",
O=C(COC(=O)c1ccccc1O)NNC(=O)c1ccc(Br)cc1,"inconclusive: 31.6 µM [inhibitor, partial curve, poor fit]",
Cn1ccnc1SCC(=O)c1ccc2ccccc2c1,"inconclusive: 0.794 µM [inhibitor, full curve, poor fit]",
CC(=NCCN1CCNCC1)C1=C(O)CC(C)(C)CC1=O,inactive,
CCCC(=O)Nc1c(C(=O)OCC)[nH]c2ccccc12,inactive,
CCN(CC)CC1CCN(c2ncc3ncnc(Nc4ccc(F)c(Cl)c4)c3n2)CC1,inactive,
COc1cc(/C=N/NC(=O)c2ccncc2)c([N+](=O)[O-])cc1OC,,inactive: 24.6% [at 2.33 µM]
CC[N+](C)(C)CC/C=C1/c2ccccc2Sc2ccc(Cl)cc21,"inconclusive: 79.4 µM [inhibitor, partial curve, poor fit]",
CCC(C)(C)n1nnnc1C(C(C)C)N1CCN(C)CC1 (configuration not stated),"inconclusive: 70.8 µM [inhibitor, single point]",
COC(=O)[C@H]1C[C@@H]1[C@H](NS(=O)(=O)c1ccc2ccccc2c1)c1ccccc1,"inconclusive: 89.1 µM [inhibitor, single point]",
CC(=O)Nc1ccc(-c2csc(NC(=O)Cc3ccccc3F)n2)cc1,active: 39.8 µM,
CCCCn1c(N)c(N(CCC(C)C)C(=O)c2[nH]c(C)c(C(=O)OCC)c2C)c(=O)[nH]c1=O,"inconclusive: 50.1 µM [inhibitor, partial curve, poor fit]",
CC1CCc2[nH]c3ccc(C(=O)N(C)CC(=O)Nc4ccccc4Cl)cc3c2C1 (configuration not stated),active: 50.1 µM,
COCCCNC(=O)CSc1nc2c(sc3ccccc32)c(=O)n1CCc1ccc(OC)c(OC)c1,inactive,
O=C(Oc1ccc(Br)cc1C(=S)N1CCCCC1)c1cc([N+](=O)[O-])cc([N+](=O)[O-])c1,"inconclusive: 2.82 µM [inhibitor, single point]",
CCOc1ncccc1C(=O)N1CCN(C(c2ccccc2)c2ccccc2)CC1,"inconclusive: 79.4 µM [inhibitor, partial curve, poor fit]",
CCc1ccccc1NC(=O)Cn1nc(CC)n2c(cc3sccc32)c1=O,inactive,
O=C(COc1ncnc2c(Cl)cc(Cl)cc12)N1CCN(S(=O)(=O)c2ccccc2)CC1,"inconclusive: 89.1 µM [inhibitor, single point]",

Structure (SMILES),Potency,"activity, negative = inhibition"
O=C(CCc1nc2ccccc2s1)OCC(=O)c1ccccc1,"inconclusive: 89.1 µM [inhibitor, single point]",
CCC(=O)OC1=C(C(C)=O)N(Cc2ccccc2)S(=O)(=O)c2ccccc21,"inconclusive: 28.2 µM [inhibitor, single point]",
O=[N+]([O-])c1cc(C=Nc2ccc3ccccc3c2)ccc1Br,active: 10 µM,
Cc1nc(Nc2cccc(F)c2)c2oc3ccccc3c2n1,"inconclusive: 89.1 µM [inhibitor, single point]",
O=C(CN1CCOCC1)N1CCc2ccccc2C(c2ccccc2)C1 (configuration not stated),"inconclusive: 10 µM [inhibitor, partial curve, poor fit]",
COc1ccc(CN2CCCCC2C(=O)Nc2ccc(OC)c(OC)c2)cc1OC (configuration not stated),inactive,
COc1ccc(-c2noc(CCC(=O)NCc3ccco3)n2)cc1,inactive,
Cc1ccc(N2C(=O)C3CC(c4ccccc4)=C4C5C=CC(C6C(=O)N(c7ccc(C)cc7)C(=O)C56)C4C3C2=O)cc1 (configuration not stated),"inconclusive: 28.2 µM [inhibitor, single point]",
Cc1cc(-n2c(C)cc(C(=O)CSc3[nH]c(=O)cc(C(F)(F)F)c3C#N)c2C)no1,,inactive: 4.62% [at 12.7 µM]
Cc1ccc(NC(=O)Cc2nn(C)c(=O)c3ccccc23)cc1F,inactive,
CC(=O)Nc1ccc(S(=O)(=O)Nc2ccc3c(c2)OCCO3)cc1,"inconclusive: 2.24 µM [inhibitor, partial curve, poor fit]",
COc1ccc(NC2=C(Cl)C(=O)N(c3ccccc3)C2=O)c(OC)c1,"inconclusive: 8.91 µM [inhibitor, full curve, poor fit]",
CCOc1ccc(OCC)c(NC(=O)c2nnn(CC(=O)Nc3cc(Cl)ccc3OC)c2N)c1,inactive,
C=CCCc1ccc(C#N)c(SCc2c(C(=O)OCC)c3cc(OC(C)=O)c(Br)cc3n2C)n1,"inconclusive: 79.4 µM [inhibitor, single point]",
C=CCn1c(SCc2cc(C(=O)OC)c(C)o2)nnc1-c1ccncc1,"inconclusive: 50.1 µM [inhibitor, partial curve]",
O=C(N1CCN(c2ccccn2)CC1)N1c2ccccc2Sc2ccccc21,,inconclusive: -53.9% [inhibitor]
O=C(c1cc2ccccc2[nH]1)N(Cc1cccnc1)CC1CCCN(C2CCCCC2)C1 (configuration not stated),inactive,
Cc1c(NC(=O)c2c(NC(=O)CNC3CC3)sc3c2CCCC3)c(=O)n(-c2ccccc2)n1C,"inconclusive: 28.2 µM [inhibitor, single point]",
Cc1ccccc1C(=O)Nc1cccc(-c2nnc(SCC(=O)O)n2C)c1,"inconclusive: 1.78 µM [inhibitor, full curve, poor fit]",
COc1cc(C2C3=C(CC(c4ccco4)CC3=O)Nc3ccccc3N2C(C)=O)cc(OC)c1OC (configuration not stated),"inconclusive: 10 µM [inhibitor, partial curve, poor fit]",
O=C(NCc1ccncc1)C1=NN(c2ccccc2)C(=O)CC1,active: 25.1 µM,
CCCS(=O)(=O)c1c(S(=O)(=O)CCC)c2cnccn2c1C(=O)c1ccc(OC)cc1,active: 50.1 µM,
N#Cc1cccc(N=c2ssnc2Cl)c1,active: 0.891 µM,

Structure (SMILES),Potency,"activity, negative = inhibition"
CC1CCCN(C(=O)CCCn2c(=S)[nH]c3ccccc3c2=O)C1 (configuration not stated),active: 44.7 µM,
CC1Cc2ccccc2N1C(=O)CSc1nn2c(=O)c(C(C)(C)C)nnc2s1 (configuration not stated),"inconclusive: 50.1 µM [inhibitor, partial curve]",
Cc1ccc(-n2cc[nH]c2=S)c(C)c1,active: 8.91 µM,
O=C(COc1ccccc1)Nc1nnc(S(=O)(=O)Nc2ccccc2)s1,"inconclusive: 2.82 µM [inhibitor, full curve, poor fit] and inconclusive: 89.1 µM [inhibitor, single point]",
COc1ccccc1-c1nnc(NC(=O)c2ccc3ncsc3c2)o1,"inconclusive: 31.6 µM [inhibitor, single point]",
Cc1nc2sc(C(c3cccs3)N3CCC(C(N)=O)CC3)c(O)n2n1 (configuration not stated),inactive,
Cc1ccc(-c2nnc(Nc3cccc(Cl)c3)c3ccccc23)cc1S(=O)(=O)N1CCN(C)CC1,active: 7.94 µM,
CC1CCCN(CCCN2C(=O)C3C(C(=O)Nc4ccc(Cl)cc4)C4C=CC3(O4)C2C(=O)NC2CCCCC2)C1 (configuration not stated),active: 44.7 µM,
CN(C)C(CNC(=O)c1cnc(Cl)c(Cl)c1)c1ccccc1 (configuration not stated),"inconclusive: 89.1 µM [inhibitor, single point]",
COc1ccc(N(Cc2cc3ccccc3[nH]c2=O)C(=O)C2CCCO2)cc1 (configuration not stated),"inconclusive: 89.1 µM [inhibitor, single point]",
CCOc1ccc(-n2cc(C(=O)N3CCC(C)CC3)c3cc(OC)c(OC)cc3c2=O)cc1,"inconclusive: 1.78 µM [inhibitor, full curve, poor fit]",
N/C(=N\OC(=O)c1ccc([N+](=O)[O-])cc1)c1cccnc1,"inconclusive: 89.1 µM [inhibitor, single point]",
N#CCc1c(C#N)c(N)nc(N2CCN(C=O)CC2)c1C#N,"inconclusive: 1.78 µM [inhibitor, full curve, poor fit]",
O=C(COC(=O)CNS(=O)(=O)/C=C/c1ccccc1)Nc1cccc2ccccc12,active: 50.1 µM,
CN(C)c1ncc2nc(-c3ccc(F)cc3)c(=O)n(-c3ccccc3)c2n1,,inactive: 20.6% [at 0.501 µM]
COc1ccc(-c2nnc(SCC(=O)NC(=O)NCc3ccccc3)o2)cc1,active: 44.7 µM,
COc1ccc(-c2cc3ncc(C)n3c(Nc3ncccc3C(N)=O)n2)cc1OC,active: 18.9 µM,
CCN(CCCCCN(C)C)Cc1cc2ccccc2o1,"inconclusive: 0.141 µM [inhibitor, full curve, poor fit]",
Cc1ccc(C2=NN(CCC#N)C(=O)CO2)cc1,"inconclusive: 0.891 µM [inhibitor, single point]",
Cc1nn(Cc2noc(C(=O)NCc3ccccn3)n2)c(C)c1Br,"inconclusive: 70.8 µM [inhibitor, single point]",
CC(=O)N1CN(Cc2ccccn2)Cc2c1sc1c2CCCC1,"inconclusive: 6.31 µM [inhibitor, single point]",
